In PMC4242493:
The list shows a part of the results. The list includes weakly bound sequences.

These sequences were tested against MaxL homodimer (UniProt P61244) (assay: universal protein-binding microarray (PBM)). Settings: PBS-based mixture, 10 nM His-tagged protein dimer, 2% milk, 200 ng/uL BSA, 50 ng/uL salmon testes DNA, 0.02% TX-100; detection with Alexa 488 anti-His …; high values mean tight binding; most listed sequences are background and not binding sites; double strand, one strand shown.
Sequence of UniProt P61244 (P61244 whole entry): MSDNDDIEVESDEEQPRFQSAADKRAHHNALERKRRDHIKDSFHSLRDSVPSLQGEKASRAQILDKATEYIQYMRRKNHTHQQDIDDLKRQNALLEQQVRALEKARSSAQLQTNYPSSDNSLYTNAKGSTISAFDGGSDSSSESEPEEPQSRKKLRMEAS

Row | Sequence | binding signal (normalized occupancy)
1 | ACCTAACC | 0.0792
2 | ATTTTGAG | 0.0789
3 | GAAAACCC | 0.0762
4 | ACAATAGG | 0.0767
5 | CTCGAAAA | 0.0738
6 | TCACCCGA | 0.0767
7 | CAGTGATA | 0.0738
8 | CCAAGTGA | 0.0743
9 | ATCCACGA | 0.0905
10 | GTTAGTAA | 0.0769
11 | GCCAGTAA | 0.0754
12 | GACTCTGC | 0.0711
13 | CGCTAGGC | 0.0642
14 | GAGTAAAA | 0.0732
15 | AGCGAGTG | 0.0717
16 | TAATTCGA | 0.0739
17 | AAGTTCTC | 0.0677
18 | CGTCTCGA | 0.071
19 | AAAACGAT | 0.0742
20 | ATTAGCTG | 0.0693
21 | ACCTACCG | 0.0732
22 | CTGGCCAA | 0.0728
23 | CATTAAAC | 0.0799
24 | GAAGTAAC | 0.0709
25 | ATACAGCC | 0.0817

Row | Sequence | binding signal (normalized occupancy)
26 | GGCGTAAA | 0.0747
27 | AGGCCGGA | 0.0695
28 | ACGGATAC | 0.0815
29 | GCATGCAA | 0.0988
30 | TAAATGGA | 0.0741
31 | CCGAACTA | 0.0689
32 | AGGGATAT | 0.0823
33 | ACAGAAGT | 0.0784
34 | AGAATCGG | 0.068
35 | CTAGGACA | 0.0729
36 | ACCAAATG | 0.0801
37 | GACCAGTA | 0.0734
38 | TCACCGGA | 0.0724
39 | CCACGACA | 0.0811
40 | ATGCAGAA | 0.0766
41 | GCACTAGA | 0.0727
42 | GTTCTAAA | 0.0731
43 | CTGTATTC | 0.0743
44 | ACCCTGAT | 0.0778
45 | CAGCCCTC | 0.0697
46 | CTAGGAAA | 0.0739
47 | CACGGAGC | 0.0724
48 | TAGTGCAA | 0.0748
49 | TAGATGGA | 0.081
50 | AAGTTAGG | 0.0725

Row | Sequence | binding signal (normalized occupancy)
51 | GAGTGGAA | 0.0794
52 | GACCGATA | 0.075
53 | AGTATCGG | 0.0757
54 | ACCTGCGG | 0.0729
55 | ATAGTTAA | 0.0783
56 | ACATCGAG | 0.0795
57 | TCTGGCAA | 0.0694
58 | ACTAGATC | 0.08
59 | AAGGAAAC | 0.0656
60 | GCGAGCTA | 0.071
61 | CATGATGA | 0.0888
62 | ACAAGCAA | 0.0715
63 | ACTGAATA | 0.0769
64 | CAAGAGGG | 0.0744
65 | TAACATTA | 0.0826
66 | CGGCCTGA | 0.0749
67 | AGTAACAA | 0.0728
68 | AGCCGTTA | 0.0719
69 | GACAGTAA | 0.0794
70 | AGTCTGAG | 0.0681
71 | ACTCTAAC | 0.0762
72 | TACTTATA | 0.0836
73 | ACTGCACG | 0.0892
74 | AGGCCCAC | 0.0777
75 | CGGGGAGC | 0.0665

Row | Sequence | binding signal (normalized occupancy)
76 | TATATTGA | 0.0845
77 | GAAACCGA | 0.0713
78 | AGCCATGA | 0.0819
79 | GTGGACAC | 0.0794
80 | GAGGCTAC | 0.0682
81 | CCCATTTC | 0.0758
82 | ACATTAGT | 0.0867
83 | GATCCAGA | 0.0723
84 | CTCTACCA | 0.0784
85 | CTCCAAAC | 0.0751
86 | CTTGTCTA | 0.0753
87 | GGTCAACA | 0.0813
88 | CTTACCTA | 0.0755
89 | CTGCCGAA | 0.069
90 | GCGTAATA | 0.0783
91 | GATTACCA | 0.0702
92 | CCAATTGG | 0.0757
93 | CGCCACCA | 0.0773
94 | CAGGTCGA | 0.0645
95 | CTGACAAC | 0.0725
96 | GTTCTAGA | 0.0745
97 | AATTTTTG | 0.0733
98 | AAGATGCG | 0.0781
99 | CACTTACA | 0.0837
100 | AATGGGTG | 0.0771

Row | Sequence | binding signal (normalized occupancy)
101 | ACTCCAGT | 0.0743
102 | GCCATGCA | 0.0904
103 | CCTAGAGA | 0.0732
104 | ATGCCCCG | 0.0818
105 | GGTATTCA | 0.0802
106 | ACCACTGA | 0.0725
107 | GAAACGAC | 0.0712
108 | CAACGAAG | 0.0687
109 | CGGCCTAA | 0.0684
110 | GACATTAC | 0.0843
111 | CATGTCCC | 0.0808
112 | CCGCACGG | 0.0742
113 | CTAGACGA | 0.0685
114 | CTGAGACC | 0.0742
115 | CCTCTAGC | 0.0704
116 | AGACCTAC | 0.0715
117 | CATCAGCC | 0.0757
118 | AGGTACAG | 0.073
119 | CGAGGAAC | 0.0734
120 | ATAGACAC | 0.0813
121 | ACCGCCCG | 0.0683
122 | GCCGCCTA | 0.0717
123 | GGTGTTCA | 0.0754
124 | GAGCTCGA | 0.0651
125 | CCTTACCC | 0.0795

Row | Sequence | binding signal (normalized occupancy)
126 | ATCGATCG | 0.0787
127 | CGGTAACC | 0.0728
128 | AGACAAAG | 0.0721
129 | AGTTTAAA | 0.0709
130 | AATCATGC | 0.0958
131 | ATCTCACG | 0.0793
132 | ACACGCGT | 0.13
133 | CCCTAGAA | 0.0758
134 | CCGAGTGA | 0.0716
135 | CCCTATGA | 0.0755
136 | CGGTCTAA | 0.0692
137 | CTAGCGCC | 0.0711
138 | CTGCGAAA | 0.0712
139 | ACTTTACT | 0.0726
140 | AGCGTGCG | 0.109
141 | CGACCAAC | 0.0711
142 | AAAGCTCC | 0.0692
143 | GGTACAAC | 0.0788
144 | GTAATAGA | 0.0753
145 | CTACGAAA | 0.0737
146 | AGTTATTG | 0.0779
147 | GACAGAAC | 0.0726
148 | CCTCATAA | 0.0838
149 | GTCTAGTA | 0.0805
150 | CCGGACAC | 0.0749

Row | Sequence | binding signal (normalized occupancy)
151 | GAAGGCAA | 0.072
152 | CTAGGTTC | 0.0693
153 | ACCGTGCA | 0.0786
154 | CCGTTGCC | 0.0682
155 | AGAAAGCA | 0.0839
156 | GAATTGAC | 0.0748
157 | GCCGTTTA | 0.0727
158 | AACCCATG | 0.0961
159 | CGCGGATC | 0.0754
160 | CCATTGGC | 0.0715
161 | CTCAGTTA | 0.074
162 | CGTCTCCA | 0.0728
163 | ACGCTGTC | 0.0787
164 | ACCATACG | 0.0805
165 | CCGCCAAG | 0.0676
166 | AACACAGT | 0.0757
167 | ACATCCTA | 0.0822
168 | TAATGATA | 0.0786
169 | CAGCCTGG | 0.0741
170 | GCGATAAA | 0.0758
171 | AATACGTG | 0.0807
172 | TGGGTGAA | 0.0791
173 | CGAATGCA | 0.0799
174 | AGCTAAAA | 0.0736
175 | CCGTTGAA | 0.0673

Row | Sequence | binding signal (normalized occupancy)
176 | GTGCAGTA | 0.0802
177 | TGTAGACA | 0.0828
178 | TGTGTCAA | 0.0893
179 | AGTCGATG | 0.0703
180 | CGTAAGAA | 0.0752
181 | CCTGTATC | 0.0763
182 | CAGCTATC | 0.0739
183 | CCACTCAA | 0.0788
184 | GAAGAGTC | 0.0783
185 | GGCTGTGA | 0.0774
186 | AGCCGGTG | 0.07
187 | ACGGGGAT | 0.0797
188 | ATCTCTCC | 0.0774
189 | CGTGATAC | 0.0943
190 | ATCCACCG | 0.0756
191 | GAAGACAA | 0.072
192 | GTACGGAC | 0.0736
193 | AGCCCAGC | 0.0684
194 | CCGAGTAA | 0.072
195 | CAAGGTTA | 0.0735
196 | AGGTTTCC | 0.073
197 | ACTCCGCT | 0.0721
198 | GCAATCAA | 0.0753
199 | GGCTTAAA | 0.0668
200 | TGGTACCA | 0.0812

Row | Sequence | binding signal (normalized occupancy)
201 | CCGTAAGC | 0.0734
202 | CAACTGAA | 0.0717
203 | ACAGAGTA | 0.073
204 | CATGAGTC | 0.091
205 | TGCACTAA | 0.0743
206 | ATGACCCC | 0.0894
207 | GAACGGCC | 0.0704
208 | CCCGGAAA | 0.0696
209 | TGGTATAA | 0.0843
210 | CAAATGCC | 0.0743
211 | ACCGCAGG | 0.0665
212 | AACTATTG | 0.0729
213 | AATCGTAC | 0.0751
214 | CGCTTCTA | 0.0728
215 | GCATCCAC | 0.0831
216 | CTATGGAA | 0.0738
217 | CCCCTATC | 0.0818
218 | AGACTGAG | 0.0653
219 | GACCTACA | 0.0734
